Values marked as one replicate rest on one cluster of the flow cell; about a third of the high ones do not repeat.

This data set has as its system ATP. Put plainly: switch fluorescence ratio, 500 uM ATP over buffer (Cy3 cluster intensity, sum of 5 cycles each) (fold (ratio)); higher = stronger signal-on switching upon ATP binding; sequences stand for … in TCGTCGGCAGCGTCAGATGTGTATAAGAGACAGTTTTTTTTTTTTTTTTTTTTTTTTT…TC. As to conditions: aptamer strand: ATP DNA aptamer (quencher-CACCTGGGGGAGTATTGCGGAGGAAGG + anchor), 100 nM annealed; ATP concentration: 500 uM; one replicate. Summed up:
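Five buffer/ATP imaging cycles were run on Cy3-labelled switching-strand clusters on a modified Illumina MiSeq flow-cell, with NaOH stripping and re-annealing between cycles. In each cycle, clusters annealed to 100 nM quencher-labelled ATP aptamer were imaged in selection buffer, then after 15 min with 500 uM ATP at 22 °C. Per cluster, the fluorescence ratio is summed target-cycle over summed buffer-cycle Cy3 intensity, averaged per switch-domain sequence. Only clusters within 100-1000 RFU were kept.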
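Also: ATP exposure 15 min at 22 °C before imaging.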

GCCTCGAATA: the switch fluorescence ratio was determined as 1.14. For the sequence TCCACCTGTA, the switch fluorescence ratio is 1.15. Under GATGCTATGT stands 1.04. As to ACAGCTTTA, the switch fluorescence ratio came to 0.972.

On to TAGCAATAT, for which the switch fluorescence ratio came to 1.09. Take AATATTCAGA: the switch fluorescence ratio came to 1.34. As for AGTAGCATGC, the switch fluorescence ratio was 1.07. For GGCGGGCATT, the switch fluorescence ratio was found to be 0.978. Regarding GTTCTTTTTA, the switch fluorescence ratio was determined as 0.964. With GGTTTTTCCT, the switch fluorescence ratio is 1.04. As to TGAGGAGTGC, the switch fluorescence ratio amounted to 1.09. As to CGTCAAAAGA, the switch fluorescence ratio came to 1.11. As to TCCTTTTGCG, the switch fluorescence ratio amounted to 0.921. For ATTTCTTACT, the switch fluorescence ratio amounted to 0.997. As for AACATTTCTA, the figure is 0.994.

For GTTGTTTGGT, the switch fluorescence ratio was 0.944.

On to TGTCTAGAGC, for which the switch fluorescence ratio is 1. Take TACGGAGTTC: the switch fluorescence ratio came out at 1.01.

With CCAGAGTGCG, the switch fluorescence ratio came out at 1.08. Turning to ATTGTCCGGC, the switch fluorescence ratio was found to be 1.06. Regarding GGCGCCAAGG, the switch fluorescence ratio was 0.975. For CCTTCCGTAT, the switch fluorescence ratio turned out to be 2.32. Under TCATATTGTT stands 1.02. In the case of CGGTTCAAGC, the switch fluorescence ratio came to 0.978. Take ATAGTACGTC: the switch fluorescence ratio turned out to be 1.07. For the sequence GGCGGGATTT, the switch fluorescence ratio amounted to 0.995.

For TCTCAACCGT, the switch fluorescence ratio amounted to 1.35.

In the case of GCCGTCTACA, the switch fluorescence ratio is 0.988. TTAGGTTAC: the switch fluorescence ratio stood at 1.02. Turning to ACCTTTGATT, the switch fluorescence ratio was 1.03. Consider CCTGGGATGT, for which the switch fluorescence ratio turned out to be 1.01. Take TTTTAGTTC: the switch fluorescence ratio was found to be 0.98.

As for GTAATCCACC, the switch fluorescence ratio was determined as 1.06. Regarding TCGTATGCTA, the switch fluorescence ratio was 0.954. As to CCGTGGGGAG, the switch fluorescence ratio came out at 1.01. Take CTATGACATC: the switch fluorescence ratio is 0.988.

On to TCTTCGTATA, for which the switch fluorescence ratio came out at 1.28. As for CCAAATGCAC, the switch fluorescence ratio came out at 1.57. As for TCCCGTGGTG, the figure is 3.04; as for GACAATTAAA, 1.06. Under TAAGGTAGCC stands 1.02; under AAGTTTACGG, 1.07; under ATGGCCTGCG, 1.03. In the case of TTGGCAGAGG, the switch fluorescence ratio was determined as 0.982. TAATTCCCTT: the switch fluorescence ratio is 1.01. Take GCATGGGG: the switch fluorescence ratio came to 1.02.

With GAGTCCTTG, the switch fluorescence ratio amounted to 1.04. Under AGACACACTC stands 1.35; under TACTACTTAA, 1.04. Consider TATAGTGA, for which the switch fluorescence ratio came to 0.998. With GCGGCTAAGG, the switch fluorescence ratio was 0.985. For the sequence TGCAGCCTGG, the switch fluorescence ratio stood at 1.03. Under AAGCGGTTAT stands 0.968; under TTGGACTCTA, 1.06; under TCGAAACAAT, 1.1. For TAAGGGATAA, the switch fluorescence ratio came out at 0.981. As for GATCCCGTTT, the figure is 0.974. Consider CGTATGGGCC, for which the switch fluorescence ratio worked out at 0.974. Consider GCTCCGGATT, for which the switch fluorescence ratio worked out at 2.95. As for GACTTGGTCT, the switch fluorescence ratio worked out at 0.958. For the sequence GTTTACCCAT, the switch fluorescence ratio was 1.02.

Regarding AGTCTTGGT, the switch fluorescence ratio came out at 1.09. As to GTAATGGTTA, the switch fluorescence ratio came out at 0.956.

Take AACATCGGAT: the switch fluorescence ratio was found to be 0.99. Regarding CTCTCATGGG, the switch fluorescence ratio was 1.05. In the case of AGAAGAAAG, the switch fluorescence ratio was 1.02. As for AGGCTGAGTT, the switch fluorescence ratio came out at 1.04. Take AGCGTAATTG: the switch fluorescence ratio was found to be 1.04. Regarding ATATTTGTGA, the switch fluorescence ratio came to 0.959. For CTGGGGATTC, the switch fluorescence ratio amounted to 1.01.

ACTGATGCTT: the switch fluorescence ratio was found to be 1.03. Turning to CCGGTAACGG, the switch fluorescence ratio came to 0.968.

As for GAGAGGCTAG, the switch fluorescence ratio was 0.978. Under TGGCAGTGAG stands 0.997. Take CATGATGGCG: the switch fluorescence ratio turned out to be 0.976.

Regarding ATCGCATTAT, the switch fluorescence ratio came out at 1.77. As for TAATGTTGT, the figure is 1.02; as for ACGAATGAAG, 0.969; as for TGTATGAGTG, 0.946.

For the origin of these results see the supplement of paper PMC10126150.
